Results as given in PubChem BioAssay (Tox21).
The inconclusive results got no clear call from the source; some entries with a clear call stand among them for comparison. Potencies of inconclusive entries are doubtful fits and often do not repeat. Activity calls are given as the source filed them. Calls come from the whole dose curve; as a rule, active = well fitted cell-killing curve with a large enough effect in the repeat runs; inconclusive = weak or mixed curves, or effect the other way; inactive = flat fitted curve, though single readings scatter.

Experiment: qHTS assay to identify small molecule antagonists of the estrogen related receptor signaling pathway with the pleiotropic PPARgamma coactivator (PGC) cell viability counter screen (AID 1224822)
Conditions: ERR/PGC reporter cell line viability counter screen; series mostly up to 46.1 µM
Summary of the method: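 Cells: PGC/ERR, 2,000/well, 1536-well format. Pre-incubation 6 h, 37 C/5% CO2. Compound exposure 17.5 h, 37 C. Detection: CellTiter-Fluor, 30 min, fluorescence.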
Potency is the fitted concentration of half-maximal effect; tags give direction and shape of the fitted curve.

Structure (SMILES)	Potency
CNc1ccc2oc(C[C@H]3O[C@@]4(CC[C@H]3C)O[C@H]([C@H](C)C(=O)c3ccc[nH]3)[C@H](C)C[C@H]4C)nc2c1C(=O)O	active: 9.44 µM
c1ccc2c(c1)[I+]c1ccccc1-2	inconclusive: 13.3 µM [cytotoxic, partial curve]
C/C=C(/C)C(=O)O[C@H]1C(C)=C2[C@H]([C@@H]1OC(=O)CCCCCCC)[C@@](C)(OC(C)=O)C[C@H](OC(=O)CCC)[C@@]1(O)[C@H]2OC(=O)[C@@]1(C)O	active: 8.1 µM
Ic1ccccc1CNC1C2CCN(CC2)C1C(c1ccccc1)c1ccccc1 (stereo not given)	active: 19.6 µM
CCCCCCCCCCCCCC(=O)O[C@@H]1[C@@H](C)[C@@]2(O)[C@@H](C=C(CO)C[C@@]3(O)C(=O)C(C)=C[C@@H]23)C2C(C)(C)[C@@]21OC(C)=O (stereo not given in full)	inconclusive: 25.1 µM [cytotoxic]
CN1CC[C@@]2(C)c3cc(OC(=O)Nc4ccccc4)ccc3N(C)[C@@H]12	inconclusive: 33.5 µM [cytotoxic, partial curve, poor fit]
CC(=O)c1c(O)c(C)c(O)c(Cc2c(O)c3c(c(C(=O)/C=C/c4ccccc4)c2O)OC(C)(C)C=C3)c1O	active: 3.48 µM
C[C@]12Cc3cn4c(nc3C=C1CCC1C2CC[C@@]2(C)[C@H]1CC[C@@]2(O)C#N)nc1ccccc14 (stereo not given in full)	inconclusive: 29.8 µM [cytotoxic]
CCCN1CCc2cccc3c2[C@H]1Cc1ccc(O)c(O)c1-3	inconclusive: 29.8 µM [cytotoxic, single point]
C[C@@H]1O[C@@H](O[C@H]2C[C@@H](O)[C@]3(CO)[C@@H]4C(CC[C@]3(O)C2)[C@@]2(O)CC[C@H]([C@@H]3COC(=O)C3)[C@@]2(C)C[C@H]4O)[C@H](O)[C@H](O)[C@H]1O (stereo not given in full)	inconclusive: 1.44 µM [cytotoxic]
CCn1cnc2c(Nc3cccc(Cl)c3)nc(N[C@@H]3CCCC[C@@H]3N)nc21	inconclusive: 8.74 µM [cytotoxic]
CN1CCC[C@@H]1Cc1c[nH]c2ccc(Nc3ncccc3[N+](=O)[O-])cc12	inconclusive: 31 µM [cytotoxic]
CN[C@@H]1C[C@@H](c2ccc(Cl)c(Cl)c2)c2ccccc21	inconclusive: 18.8 µM [cytotoxic, partial curve, poor fit]
C[C@]12N[C@H](Cc3ccccc31)c1ccccc12	inactive
O=S1(=O)N(CCN2CC=C(c3c[nH]c4cc(F)ccc34)CC2)c2cccc3c2N1CCC3	inconclusive: 27.6 µM [cytotoxic]
Cc1nccc2c1[nH]c1ccccc12	inactive
CN1CCc2cc(O)cc3c2[C@H]1Cc1ccc(O)c(O)c1-3	inconclusive: 21.1 µM [cytotoxic]
CC(C)(C)c1cc(C=C(C#N)C#N)cc(C(C)(C)C)c1O	inconclusive: 0.694 µM [cytotoxic]
Clc1ccc(C(c2ccc(Cl)cc2)n2cc[n+](CC(OCc3ccc(Cl)cc3Cl)c3ccc(Cl)cc3Cl)c2)cc1 (stereo not given)	inconclusive: 31 µM [cytotoxic]
C[C@]12CCC3C(CC[C@H]4C[C@H](O)CC[C@]34C)C1CC[C@@H]2C(=O)CO (stereo not given in full)	inactive
